Test results published in the CheMixHub viscosity set.
“And” between values parts separate entries of the source, which are not always exact repeats. Identical values can stand only once. ± gives the uncertainty stated by the source. Further values from the same series stand in other lists.

Test: xn = mol fraction of the nth substance listed

CC(C)=O + O
Conditions | viscosity
298.15 K, 101 kPa, x1 = 0.74 | 0.4509 ± 0.0047 mPa·s
298.15 K, 101 kPa, x1 = 0.775 | 0.3964 ± 0.0038 mPa·s
298.15 K, 101 kPa, x1 = 0.7999 | 0.3658 ± 0.005 mPa·s
298.15 K, 101 kPa, x1 = 0.849 | 0.352 ± 0.008 mPa·s
298.15 K, 101 kPa, x1 = 0.864 | 0.345 ± 0.008 mPa·s
298.15 K, 101 kPa, x1 = 0.894 | 0.3355 ± 0.0034 mPa·s
298.15 K, 101 kPa, x1 = 0.9 | 0.3097 ± 0.0049 mPa·s
298.15 K, 101 kPa, x1 = 0.902 | 0.332 ± 0.007 mPa·s
298.15 K, 101 kPa, x1 = 0.93 | 0.32 ± 0.007 mPa·s
298.15 K, 101 kPa, x1 = 0.962 | 0.306 ± 0.007 mPa·s
298.15 K, 101 kPa, x2 = 0.008 | 0.303 ± 0.0032 mPa·s
303.15 K, 101 kPa, x1 = 0.01 | 0.858 ± 0.023 mPa·s
303.15 K, 101 kPa, x1 = 0.02 | 0.898 ± 0.024 mPa·s
303.15 K, 101 kPa, x1 = 0.0201 | 0.932 ± 0.0081 mPa·s
303.15 K, 101 kPa, x1 = 0.04 | 1.007 ± 0.027 mPa·s
303.15 K, 101 kPa, x1 = 0.0499 | 1.073 ± 0.0088 mPa·s
303.15 K, 101 kPa, x1 = 0.06 | 1.083 ± 0.029 mPa·s
303.15 K, 101 kPa, x1 = 0.0702 | 1.143 ± 0.0091 mPa·s
303.15 K, 101 kPa, x1 = 0.1 | 1.206 ± 0.0094 mPa·s and 1.173 ± 0.031 mPa·s
303.15 K, 101 kPa, x1 = 0.12 | 1.217 ± 0.0094 mPa·s
303.15 K, 101 kPa, x1 = 0.1499 | 1.219 ± 0.0094 mPa·s
303.15 K, 101 kPa, x1 = 0.1701 | 1.211 ± 0.0094 mPa·s
303.15 K, 101 kPa, x1 = 0.1999 | 1.176 ± 0.0092 mPa·s
303.15 K, 101 kPa, x1 = 0.22 | 1.143 ± 0.009 mPa·s
303.15 K, 101 kPa, x1 = 0.2499 | 1.089 ± 0.0088 mPa·s
303.15 K, 101 kPa, x1 = 0.2701 | 1.049 ± 0.0085 mPa·s
303.15 K, 101 kPa, x1 = 0.3001 | 0.988 ± 0.0082 mPa·s
303.15 K, 101 kPa, x1 = 0.3499 | 0.883 ± 0.0076 mPa·s
303.15 K, 101 kPa, x1 = 0.4 | 0.7871 ± 0.0071 mPa·s
303.15 K, 101 kPa, x1 = 0.4502 | 0.7003 ± 0.0066 mPa·s
303.15 K, 101 kPa, x1 = 0.5001 | 0.6244 ± 0.0062 mPa·s
303.15 K, 101 kPa, x1 = 0.6 | 0.5015 ± 0.0056 mPa·s
303.15 K, 101 kPa, x1 = 0.7 | 0.4109 ± 0.0052 mPa·s
303.15 K, 101 kPa, x1 = 0.7999 | 0.3442 ± 0.005 mPa·s
303.15 K, 101 kPa, x1 = 0.9 | 0.2899 ± 0.0048 mPa·s
303.15 K, 101.33 kPa, x1 = 0.1218 | 1.162 ± 0.0081 mPa·s
303.15 K, 101.33 kPa, x1 = 0.172 | 1.116 ± 0.0078 mPa·s
303.15 K, 101.33 kPa, x1 = 0.3122 | 0.9287 ± 0.0065 mPa·s
303.15 K, 101.33 kPa, x1 = 0.3681 | 0.8397 ± 0.0059 mPa·s
303.15 K, 101.33 kPa, x1 = 0.6042 | 0.526 ± 0.0037 mPa·s
303.15 K, 101.33 kPa, x1 = 0.7697 | 0.416 ± 0.0029 mPa·s
308.15 K, 101 kPa, x1 = 0.01 | 0.771 ± 0.021 mPa·s
308.15 K, 101 kPa, x1 = 0.02 | 0.805 ± 0.021 mPa·s
308.15 K, 101 kPa, x1 = 0.0201 | 0.8343 ± 0.0075 mPa·s
308.15 K, 101 kPa, x1 = 0.04 | 0.9 ± 0.024 mPa·s
308.15 K, 101 kPa, x1 = 0.06 | 0.959 ± 0.026 mPa·s
308.15 K, 101 kPa, x1 = 0.1 | 1.034 ± 0.028 mPa·s
310.95 K, 101 kPa, x1 = 0.0297 | 0.8054 ± 0.0066 mPa·s
310.95 K, 101 kPa, x1 = 0.0912 | 0.9643 ± 0.0078 mPa·s
310.95 K, 101 kPa, x1 = 0.1447 | 0.9943 ± 0.008 mPa·s
310.95 K, 101 kPa, x1 = 0.1905 | 0.9646 ± 0.0078 mPa·s
310.95 K, 101 kPa, x1 = 0.242 | 0.8974 ± 0.0073 mPa·s
310.95 K, 101 kPa, x1 = 0.299 | 0.8193 ± 0.0068 mPa·s
310.95 K, 101 kPa, x1 = 0.456 | 0.5963 ± 0.0053 mPa·s
310.95 K, 101 kPa, x1 = 0.538 | 0.5054 ± 0.0046 mPa·s
310.95 K, 101 kPa, x1 = 0.639 | 0.4241 ± 0.004 mPa·s
310.95 K, 101 kPa, x1 = 0.776 | 0.3407 ± 0.0034 mPa·s
310.95 K, 101 kPa, x1 = 0.905 | 0.2934 ± 0.0031 mPa·s
310.95 K, 101 kPa, x2 = 0.008 | 0.2692 ± 0.0029 mPa·s
313.15 K, 101.33 kPa, x1 = 0.1218 | 0.8966 ± 0.0063 mPa·s
313.15 K, 101.33 kPa, x1 = 0.172 | 0.8596 ± 0.006 mPa·s
313.15 K, 101.33 kPa, x1 = 0.3122 | 0.7082 ± 0.005 mPa·s
313.15 K, 101.33 kPa, x1 = 0.3681 | 0.6751 ± 0.0047 mPa·s
313.15 K, 101.33 kPa, x1 = 0.6042 | 0.4571 ± 0.0032 mPa·s
313.15 K, 101.33 kPa, x1 = 0.7697 | 0.3565 ± 0.0025 mPa·s
323.15 K, 101.33 kPa, x1 = 0.1218 | 0.7087 ± 0.005 mPa·s
323.15 K, 101.33 kPa, x1 = 0.173 | 0.6847 ± 0.0048 mPa·s
323.15 K, 101.33 kPa, x1 = 0.3122 | 0.6027 ± 0.0042 mPa·s
323.15 K, 101.33 kPa, x1 = 0.3681 | 0.5547 ± 0.0039 mPa·s
323.15 K, 101.33 kPa, x1 = 0.6042 | 0.4055 ± 0.0028 mPa·s
323.15 K, 101.33 kPa, x1 = 0.7697 | 0.3421 ± 0.0024 mPa·s
